Assay results: PubChem BioAssay AID1476 (National Center for Advancing Translational Sciences (NCATS), 2009)
In all, about 200,000 compounds went through this assay and about 4,500 (2.2%) were called active. Inconclusive results, whose numbers are uncertain, are shown with a selection of clear calls. Calls come from the whole dose curve; as a rule, active = well fitted inhibition curve with a large enough effect; inconclusive = small, poorly fitted or top-dose-only effect, or effect the other way; inactive = flat fitted curve, though single readings scatter. Potencies beside an inconclusive call are fits to weak or partial responses and may not hold up.

Biological target: Cruzipain (Trypanosoma cruzi) (UniProt P25779)
Assay: qHTS Assay for Promiscuous and Specific Inhibitors of Cruzain (without detergent); note: nearly all actives have a fitted effect of over 40% in size;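 for max response, negative = inhibition: plate controls were enzyme without inhibitor for no effect and buffer without enzyme for full effect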
Details: purified cruzain, Z-FR-AMC fluorescence, no detergent
Method in brief: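 Purified cruzain at 1.5 nM, pre-incubated 15 min with compound at room temperature in 100 mM sodium acetate pH 5.5, 5 mM DTT, 0.00005% Triton X-100. Reaction started with 2 uM Z-FR-AMC; AMC fluorescence increase over 60 s gives rate.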
Potency is the fitted concentration of half-maximal effect; tags give direction and shape of the fitted curve.

UniProt P25779, sequence (P25779 whole entry, looked up): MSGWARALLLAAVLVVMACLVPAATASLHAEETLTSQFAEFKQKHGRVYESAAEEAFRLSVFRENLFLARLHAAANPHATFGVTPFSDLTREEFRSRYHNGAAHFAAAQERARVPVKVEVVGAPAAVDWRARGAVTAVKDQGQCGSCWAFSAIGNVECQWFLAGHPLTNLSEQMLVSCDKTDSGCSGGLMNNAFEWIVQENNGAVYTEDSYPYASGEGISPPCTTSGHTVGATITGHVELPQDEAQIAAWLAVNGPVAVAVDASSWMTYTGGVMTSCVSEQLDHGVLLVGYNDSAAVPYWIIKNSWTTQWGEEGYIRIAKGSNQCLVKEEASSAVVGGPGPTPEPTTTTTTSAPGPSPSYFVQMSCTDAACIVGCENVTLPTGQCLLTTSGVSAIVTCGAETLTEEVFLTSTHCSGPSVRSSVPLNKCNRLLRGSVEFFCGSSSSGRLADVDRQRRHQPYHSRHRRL

| SMILES | Potency | max response, negative = inhibition |
| --- | --- | --- |
| Cc1ccc2nc(C3CCN(S(=O)(=O)c4ccc5ccccc5c4)CC3)[nH]c2c1 | inconclusive: 31.6 µM [inhibitor, single point] | – |
| CN(Cc1ccccc1)Cc1nc2c(c(=O)n(C)c(=O)n2C)n1Cc1ccc(Cl)cc1 | inconclusive: 39.8 µM [activator, single point] | – |
| COc1ccc(-c2cc(=O)c3cc(OCC(=O)OC(C)C)ccc3o2)cc1 | inconclusive: 5.01 µM [activator, single point] | – |
| CCOC(=O)c1c(C)nc2c(c1-c1ccc(Cl)cc1)C(=O)CC(C)(C)C2 | inconclusive: 31.6 µM [activator, single point] | – |
| COc1ccc(-c2noc(CCC(=O)Nc3nc4ccccc4s3)n2)cc1 | inconclusive: 39.8 µM [inhibitor, single point] | – |
| Oc1ccc(-c2nc(-c3ccccc3)c(-c3ccc(Br)cc3)[nH]2)cc1 | inconclusive: 15.8 µM [inhibitor, single point] | – |
| CCOc1ccc(OCC(=O)NCCc2nc3ccccc3[nH]2)cc1 | active: 0.794 µM | – |
| O=C(COC(=O)C(Cc1c[nH]c2ccccc12)NC(=O)c1ccc(Cl)cc1)c1ccc(Cl)cc1 (stereo unspecified) | inconclusive: 39.8 µM [inhibitor, single point] | – |
| Cc1nn(-c2ccccc2)c2c1cc1c(=O)n(C)c(=O)nc-1n2-c1cccc(Cl)c1 | – | inactive: 1.19% |
| COc1ccccc1NC(=O)C1CCN(S(=O)(=O)c2ccc3[nH]c4c(c3c2)CCCCC4)CC1 | active: 20 µM | – |
| Cc1cc(C)c(NC(=O)CCn2c(=O)c3cccn3c3ccccc32)c(C)c1 | inconclusive: 31.6 µM [activator, single point] | – |
| CCN1CCN(C(c2ccc(SC)cc2)c2c(O)cc(C)n(Cc3ccco3)c2=O)CC1 (stereo unspecified) | inconclusive: 39.8 µM [inhibitor, single point] | – |
| Cc1ccc(S(=O)(=O)N2CCOCC2)cc1NC(=O)COC(=O)CNC(=O)c1ccc(Oc2ccccc2)cc1 | inconclusive: 31.6 µM [activator, single point] | – |
| Cn1c2ccccc2c2nnc(SCc3ccc4nonc4c3)nc21 | inconclusive: 31.6 µM [inhibitor, single point] | – |
| COc1ccccc1N(C(=O)c1snc(C(N)=O)c1N)C(C(=O)NCCC(C)C)c1ccco1 (stereo unspecified) | inconclusive: 39.8 µM [activator, single point] | – |
| CSCCC1NC2(C(=O)Nc3c(C)cc(Cl)cc32)[C@@H]2C(=O)N(C3CCCC3)C(=O)[C@H]12 (stereo partly specified) | inconclusive: 39.8 µM [activator, single point] | – |
| O=C(/C=C/c1ccccc1)NC(=S)Nc1ccccc1C(=O)NC1CCCCC1 | inconclusive: 31.6 µM [inhibitor, single point] | – |
| COc1cc(CCNC(=O)c2ccc3c(c2)c(C)c(C)n3Cc2cccc(C)c2)cc(OC)c1OC | – | inactive: -7.59% |
| O=C1C2Sc3[nH]c(=O)sc3C(c3ccccc3)C2C(=O)N1c1ccccc1 (stereo unspecified) | inconclusive: 39.8 µM [inhibitor, single point] | – |
| Cc1ccc(NC(=O)c2ccc(CNS(=O)(=O)c3ccc4c(c3)C(C)(C)C(=O)N4C)cc2)cc1C | – | inactive: 13.6% |
| CCOc1cc(N2CCOCC2)c(OCC)cc1NC(=O)Cc1cccc2ccccc12 | inconclusive: 31.6 µM [activator, partial curve] | – |

| SMILES | Potency | max response, negative = inhibition |
| --- | --- | --- |
| CC1=CCC2(CO)COC(c3ccccc3O)C1C2 (stereo unspecified) | – | inactive: -2.73% |
| O=C1N/C(=N\N=C\c2cccs2)SC1Cc1ccc(Cl)cc1 (stereo unspecified) | active: 2.51 µM | – |
| CCCCCCCCCCCCC(=O)N1CCCC[C@H]1CNC(=O)[C@@H](N)CCCCN | – | inactive: 13.8% |
| CCOC(=O)/C(=N/Nc1ccc(Cl)cc1)Sc1nnnn1-c1ccc(C)cc1 | inconclusive: 39.8 µM [inhibitor, single point] | – |
| CCC1CCCCN1c1nc(-c2cccc(OC)c2O)nc2ccccc12 (stereo unspecified) | inconclusive: 31.6 µM [inhibitor, single point] | – |
| COC(=O)c1ccccc1NC(=O)CSc1nc(NC(=O)c2ccccc2)c2c(C)c(C)oc2n1 | inconclusive: 39.8 µM [inhibitor, single point] | – |
| O=C(Nc1ccc(Cl)c(Cl)c1)Nc1ccc(N2CCCC2)c(S(=O)(=O)Nc2ccccc2Cl)c1 | inconclusive: 3.98 µM [inhibitor, partial curve] | – |
| CCc1ccccc1NC(=O)c1ccc2c(SCC(=O)O)c3c(nc2c1)CCC3 | – | inactive: -11% |
| Cc1ccc(-c2c(C#N)c(N)nc3c2CCCCC3)cc1 | inconclusive: 31.6 µM [inhibitor, single point] | – |
| O=C(Nc1cccc(C(=O)N2CCN(c3cccc(Cl)c3)CC2)c1)c1nsc2ccccc12 | inconclusive: 39.8 µM [inhibitor, single point] | – |
| CCn1c(C(=O)N2CCC(C(=O)N3CCC4(CC3)OCCO4)CC2)cc2sccc21 | inconclusive: 25.1 µM [activator, single point] | – |
| COc1ccc(-c2cc3n(n2)CCc2nc4ccccc4n2-3)cc1 | inconclusive: 25.1 µM [activator, partial curve] | – |
| Cc1ccc(Cn2nc(C)c(NC(=O)CCCn3nc(C)c([N+](=O)[O-])c3C)c2C)cc1 | inconclusive: 39.8 µM [activator, single point] | – |
| O=C(Nc1cccc2ccccc12)/C(=C/c1ccc([N+](=O)[O-])cc1)NC(=O)c1ccccc1 | inconclusive: 20 µM [inhibitor, single point] | – |
| O=C(NCCS(=O)(=O)N1CCN(c2ccc(F)cc2)CC1)c1cccc(C(F)(F)F)c1 | – | inactive: -1.2% |
| CCN(CC)S(=O)(=O)c1ccc2c(c1)c(=O)c(C(=O)NCc1cccs1)cn2C | inconclusive: 20 µM [activator, partial curve] | – |
| CCCn1c(=O)c2c(C(F)(F)F)cc(-c3cccs3)nc2n(CCC)c1=O | active: 6.31 µM | – |
| Cc1ccc(NS(=O)(=O)c2cc(NC(=O)c3cc4c(s3)CCCC4)ccc2C)c(C)c1 | active: 31.6 µM | – |
| COc1ccccc1C1=NN(C(=S)Nc2ccccc2)C(c2ccco2)C1 (stereo unspecified) | inconclusive: 39.8 µM [inhibitor, single point] | – |
| N#Cc1ccc(C23CC4(C2)[C@H](CN(Cc2cccnc2)[C@@H]4c2ccccc2)C3c2ccc(C(F)(F)F)cc2)cc1 (stereo partly specified) | inconclusive: 1.26 µM [inhibitor, partial curve, poor fit] | – |
| CC(=O)c1nn(-c2cccc(Br)c2)cc1C(=O)c1ccccc1 | inconclusive: 31.6 µM [inhibitor, single point] | – |

| SMILES | Potency | max response, negative = inhibition |
| --- | --- | --- |
| Cc1c(C)c2cc(Cl)c(O)c(CN3CCCC(C)C3)c2oc1=O (stereo unspecified) | inconclusive: 31.6 µM [inhibitor, single point] | – |
| Cc1csc(NC(=O)CSc2nnc(-c3ccccn3)n2-c2ccc(C)c(C)c2)n1 | inconclusive: 39.8 µM [activator, single point] | – |
| CC1Cc2ccccc2N1c1nc(C2CC2)nc2c1nnn2Cc1ccccc1 (stereo unspecified) | active: 20 µM | – |
| CC(C)(C)c1ccc(Oc2ccc(NC(=O)CCC(=O)OCC(=O)c3ccccc3)cc2)cc1 | inconclusive: 20 µM [activator, single point] | – |
| C=CCN(C(=O)c1cccc(S(=O)(=O)N2CCN(C)CC2)c1)c1nc(-c2ccccc2)cs1 | inconclusive: 39.8 µM [activator, single point] | – |
| Cc1ccc2oc(=O)c3cc(C(=O)N4CCN(c5ccccc5F)CC4)sc3c2c1 | – | inactive: -11.5% |
| O=S(=O)(Nc1cc(F)ccc1F)c1ccc2[nH]c3c(c2c1)CCCCC3 | inconclusive: 39.8 µM [inhibitor, single point] | – |
| COC(=O)[C@]1(C)C[C@H]1[C@H](NP(=O)(c1ccccc1)c1ccccc1)c1ccccc1 | inconclusive: 31.6 µM [activator, single point] | – |
| CN(C)c1ccc(CNC(=O)c2ccc(NC(=O)N3CCCCc4ccccc43)cc2)cc1 | – | inactive: -2.31% |
| Cc1ccc(N2C(=O)c3cccc4c(Oc5ccccc5[N+](=O)[O-])ccc(c34)C2=O)c(C)c1 | active: 25.1 µM | – |
| COC(=O)c1c(-c2ccc(Br)cc2)csc1NC(=O)Cc1ccc(OC)c(OC)c1 | inconclusive: 6.31 µM [inhibitor, partial curve] | – |
| O=C(NCc1cccnc1)c1ccc(COc2ccccc2Br)o1 | inconclusive: 1 µM [inhibitor, single point] | – |
| O=C(CCCn1c(=S)[nH]c2ccccc2c1=O)N1CCN(c2cccc(Cl)c2)CC1 | inconclusive: 25.1 µM [inhibitor, single point] | – |
| CCC(=O)C1=C(c2ccc(OC)c(OC)c2)N(C(=O)CC)n2c(CC)nnc2S1 | inconclusive: 39.8 µM [activator, single point] | – |
| O=C(NCC1CCCO1)c1sc(=S)n2c1[nH]c(=O)c1ccc(C(=O)N3CCCCC3)cc12 (stereo unspecified) | inconclusive: 31.6 µM [activator, single point] | – |
| CCN(CC)S(=O)(=O)c1ccc(/C=C/C(=O)OCC(=O)Nc2ccc(S(N)(=O)=O)cc2)cc1 | inconclusive: 39.8 µM [inhibitor, single point] | – |
| COc1cc2c(cc1OC)C(c1ccc(Cl)cc1)N(c1ccc(C)c(F)c1)C(=O)C2 (stereo unspecified) | inconclusive: 39.8 µM [activator, single point] | – |
| CSCCC(NC(=O)c1cc([N+](=O)[O-])cc([N+](=O)[O-])c1)c1nc2ccccc2[nH]1 (stereo unspecified) | inconclusive: 31.6 µM [inhibitor, single point] | – |
| O=C(NC(=S)NC1C2CC3CC(C2)CC1C3)C12CC3CC(CC(C3)C1)C2 (stereo unspecified) | inconclusive: 39.8 µM [inhibitor, single point] | – |
